{"source": "paper PMC10668032", "note": "This is one part of the list. At the low end of the ranking, values are background and their order means little.", "data": [{"molecular_target": "SIX1 homeodomain (reference allele) (UniProt Q15475)", "test": "universal protein binding microarray", "conditions": "Universal all-10-mer PBM (8x60K, AMADID 030236), 300 nM GST-tagged protein, Alexa Fluor 488 anti-GST; buffer, salt, pH and temperature not stated; high values mean tight binding; most listed sequences are background and not binding sites; double strand, one strand shown", "units": {"binding signal": "E-score"}, "values": [{"sequence": "CATACGAA", "binding signal": 0.00525}, {"sequence": "GCTCGGGA", "binding signal": -0.0528}, {"sequence": "AGTAAAGC", "binding signal": -0.0343}, {"sequence": "GCCTGACC", "binding signal": -0.127}, {"sequence": "AAAGTGTT", "binding signal": -0.196}, {"sequence": "ACCTGGGG", "binding signal": 0.0735}, {"sequence": "ACCCTTTA", "binding signal": 0.0286}, {"sequence": "CTTGTTAC", "binding signal": -0.135}, {"sequence": "GCTGCAGC", "binding signal": -0.321}, {"sequence": "AGAACAGC", "binding signal": -0.273}, {"sequence": "ATGATGGG", "binding signal": -0.094}, {"sequence": "CCGGGGGA", "binding signal": -0.0541}, {"sequence": "AATAGGGG", "binding signal": 0.217}, {"sequence": "ATCCGCTC", "binding signal": 0.377}, {"sequence": "AAGGTGTC", "binding signal": 0.373}, {"sequence": "CCCGGACA", "binding signal": 0.061}, {"sequence": "CACTCTCG", "binding signal": -0.00186}, {"sequence": "GCAAACAC", "binding signal": -0.0449}, {"sequence": "AAGCTCGC", "binding signal": -0.211}, {"sequence": "CAAATACG", "binding signal": 0.03}, {"sequence": "ACAACCGG", "binding signal": -0.171}, {"sequence": "AGGGAGGG", "binding signal": -0.0797}, {"sequence": "ATATGCTC", "binding signal": 0.29}, {"sequence": "CGATCAAA", "binding signal": 0.00681}, {"sequence": "CTCTTCTC", "binding signal": 0.0511}, {"sequence": "TGAGTAAA", "binding signal": -0.0642}, {"sequence": "CTACAGAC", "binding signal": -0.182}, {"sequence": "CTTTGGGC", "binding signal": -0.000765}, {"sequence": "ATTTCATG", "binding signal": -0.223}, {"sequence": "TCCGGAAA", "binding signal": 0.0168}, {"sequence": "CGACAGAA", "binding signal": 0.153}, {"sequence": "AACCCCTA", "binding signal": 0.0636}, {"sequence": "AGAGAGAG", "binding signal": -0.126}, {"sequence": "CCGTCCAC", "binding signal": -0.071}, {"sequence": "GATTACTA", "binding signal": -0.0362}, {"sequence": "GCATCGAA", "binding signal": 0.116}, {"sequence": "ACAGGGCC", "binding signal": -0.236}, {"sequence": "AAGATGAA", "binding signal": -0.0473}, {"sequence": "CGAATATA", "binding signal": 0.102}, {"sequence": "ATAGGCTC", "binding signal": 0.11}, {"sequence": "GATGAGGA", "binding signal": 0.15}, {"sequence": "AACCTCAA", "binding signal": -0.145}, {"sequence": "CCCGATAA", "binding signal": 0.139}, {"sequence": "ATGACCAG", "binding signal": -0.0983}, {"sequence": "GTATTCCA", "binding signal": 0.202}, {"sequence": "GAAGCCCC", "binding signal": 0.0222}, {"sequence": "ACAGAGTC", "binding signal": -0.0356}, {"sequence": "ACCGGACA", "binding signal": -0.0653}, {"sequence": "ATGCAAGG", "binding signal": -0.0597}, {"sequence": "CCGCTTCC", "binding signal": -0.101}, {"sequence": "AATTTTAA", "binding signal": -0.0573}, {"sequence": "ACGTACAC", "binding signal": 0.105}, {"sequence": "GAGTGCCC", "binding signal": -0.107}, {"sequence": "CGTGAACC", "binding signal": -0.12}, {"sequence": "GCGCAAGC", "binding signal": -0.236}, {"sequence": "AGACACAC", "binding signal": -0.137}, {"sequence": "GCTGTACC", "binding signal": -0.135}, {"sequence": "TAGCTTAA", "binding signal": -0.101}, {"sequence": "ACAACCAG", "binding signal": -0.0344}, {"sequence": "AGTGGCAC", "binding signal": -0.0284}, {"sequence": "TCCATGAA", "binding signal": -0.057}, {"sequence": "CATAGGCG", "binding signal": -0.0269}, {"sequence": "TAACGTTA", "binding signal": -0.235}, {"sequence": "CACGTAGG", "binding signal": -0.034}, {"sequence": "AACCAAAT", "binding signal": -0.118}, {"sequence": "AACCGAGG", "binding signal": -0.083}, {"sequence": "AGAACATA", "binding signal": 0.152}, {"sequence": "ACTCGATC", "binding signal": 0.0395}, {"sequence": "GCGAAGCA", "binding signal": -0.283}, {"sequence": "CAAGGAGG", "binding signal": 0.0667}, {"sequence": "ATAGCTAT", "binding signal": 0.27}, {"sequence": "ACCGCCCT", "binding signal": 0.0181}, {"sequence": "AGCCTGAT", "binding signal": 0.203}, {"sequence": "TAAAATGA", "binding signal": 0.0255}, {"sequence": "GTGCGAAA", "binding signal": -0.297}, {"sequence": "AGCACAGA", "binding signal": 0.0306}, {"sequence": "ATCGCAAT", "binding signal": 0.194}, {"sequence": "AATGTAGA", "binding signal": -0.134}, {"sequence": "GTCCAAAA", "binding signal": -0.171}, {"sequence": "CCCATTAG", "binding signal": -0.267}, {"sequence": "CAAGTGGG", "binding signal": 0.00481}, {"sequence": "GACGCATC", "binding signal": 0.132}, {"sequence": "GTCTCATA", "binding signal": 0.274}, {"sequence": "ATGCCCAC", "binding signal": -0.101}, {"sequence": "ACTGGATA", "binding signal": 0.292}, {"sequence": "CATGCGGC", "binding signal": -0.213}, {"sequence": "CGATAATA", "binding signal": 0.328}, {"sequence": "ACCCGGTC", "binding signal": -0.0936}, {"sequence": "AGTCCAAC", "binding signal": -0.28}, {"sequence": "ACCTGCGC", "binding signal": -0.0146}, {"sequence": "CTGTCTTC", "binding signal": -0.351}, {"sequence": "ATACTGCA", "binding signal": 0.242}, {"sequence": "TACACGTA", "binding signal": 0.205}, {"sequence": "GCCATATA", "binding signal": 0.215}, {"sequence": "AAAATCAG", "binding signal": -0.216}, {"sequence": "AGAGGAGG", "binding signal": 0.00861}, {"sequence": "ATACACAG", "binding signal": 0.289}, {"sequence": "ACGCCTAA", "binding signal": -0.153}, {"sequence": "CTGAGAGC", "binding signal": 0.133}, {"sequence": "CAACGTGA", "binding signal": -0.113}, {"sequence": "ATACTCCG", "binding signal": 0.359}, {"sequence": "ACATGTCT", "binding signal": -0.0505}, {"sequence": "TAAAGGCA", "binding signal": -0.317}, {"sequence": "TAAGTGCA", "binding signal": -0.101}, {"sequence": "ACGGTTCA", "binding signal": -0.117}, {"sequence": "ACGCCTTA", "binding signal": -0.00294}, {"sequence": "CCTCGAGC", "binding signal": -0.0555}, {"sequence": "ATGACAGC", "binding signal": -0.168}, {"sequence": "ACTAAGTG", "binding signal": -0.0756}, {"sequence": "CGGTGACC", "binding signal": -0.107}, {"sequence": "CCGGAGTC", "binding signal": -0.115}, {"sequence": "GGGCTACC", "binding signal": -0.172}, {"sequence": "GGCGAAAC", "binding signal": -0.159}, {"sequence": "CCCGGCCG", "binding signal": -0.0205}, {"sequence": "ATGTGCCG", "binding signal": -0.0276}, {"sequence": "TACTGCGA", "binding signal": 0.0491}, {"sequence": "CGCGGTAC", "binding signal": 0.148}, {"sequence": "TTATGCAA", "binding signal": -0.00696}, {"sequence": "CGAGATCG", "binding signal": 0.207}, {"sequence": "CCTTCGTC", "binding signal": -0.208}, {"sequence": "GATATCAC", "binding signal": 0.476}, {"sequence": "TGAGAAAA", "binding signal": -0.139}, {"sequence": "AAGAAAGC", "binding signal": -0.312}, {"sequence": "GAGGTAAC", "binding signal": 0.00647}, {"sequence": "ACGGGGAC", "binding signal": -0.0925}, {"sequence": "AGCTGCAC", "binding signal": -0.219}, {"sequence": "GCTATAAC", "binding signal": -0.038}, {"sequence": "TACCCTGA", "binding signal": 0.249}, {"sequence": "AATACAAT", "binding signal": 0.0941}, {"sequence": "GGTACCCA", "binding signal": -0.0424}, {"sequence": "AAAGAATA", "binding signal": 0.0838}, {"sequence": "CGACTCAA", "binding signal": -0.173}, {"sequence": "ATGCTTTG", "binding signal": -0.142}, {"sequence": "GGCATACC", "binding signal": 0.0187}, {"sequence": "CGGTCGTA", "binding signal": -0.114}, {"sequence": "CATCGCGC", "binding signal": -0.12}, {"sequence": "CATGACTC", "binding signal": -0.303}, {"sequence": "ATTCGGAG", "binding signal": -0.0897}, {"sequence": "CAATATGC", "binding signal": 0.0633}, {"sequence": "GGATTAAC", "binding signal": 0.148}, {"sequence": "GTGGCGAA", "binding signal": -0.189}, {"sequence": "ATCCGCAC", "binding signal": 0.349}, {"sequence": "AAATTAAG", "binding signal": -0.277}, {"sequence": "GTTACTCA", "binding signal": -0.0827}, {"sequence": "CGAGTCTC", "binding signal": -0.0674}, {"sequence": "ACCGCTAA", "binding signal": -0.0946}, {"sequence": "GAGCATAA", "binding signal": 0.0387}, {"sequence": "ACCACGGA", "binding signal": 0.0747}, {"sequence": "AGAACAAA", "binding signal": -0.0746}, {"sequence": "CAGGTGTA", "binding signal": 0.272}, {"sequence": "CTAACTCC", "binding signal": -0.155}, {"sequence": "GGATATCC", "binding signal": 0.467}, {"sequence": "CGGATCAG", "binding signal": 0.443}, {"sequence": "AGAACTGG", "binding signal": 0.00542}, {"sequence": "CGATGTAG", "binding signal": -0.156}, {"sequence": "AAGTTGTA", "binding signal": -0.0587}, {"sequence": "ACCCATGG", "binding signal": 0.0706}, {"sequence": "CCCACGCG", "binding signal": -0.0939}, {"sequence": "TACGTCGA", "binding signal": -0.0838}, {"sequence": "ACTGTCTC", "binding signal": 0.0286}, {"sequence": "AGCTAAGG", "binding signal": -0.272}, {"sequence": "GTTCTCAA", "binding signal": -0.00177}, {"sequence": "CACATCAA", "binding signal": -0.0397}, {"sequence": "GAATCCGA", "binding signal": 0.188}, {"sequence": "AACAGATC", "binding signal": 0.2}, {"sequence": "ACGTGGGA", "binding signal": 0.00087}, {"sequence": "ATAGAAAT", "binding signal": 0.0207}, {"sequence": "ATGTTATA", "binding signal": 0.0232}, {"sequence": "ATAATGGG", "binding signal": 0.065}, {"sequence": "TACCACTA", "binding signal": 0.0147}, {"sequence": "AGGTCACT", "binding signal": -0.199}, {"sequence": "GGAAGATA", "binding signal": 0.315}]}]}
